Measurements published in PubChem BioAssay AID588855 (National Center for Advancing Translational Sciences (NCATS), 2011).
In all, about 410,000 compounds went through this assay and about 5,000 (1.2%) were called active. The inconclusive results got no clear call from the source; some entries with a clear call stand among them for comparison. The call rests on the fitted dose curve; in most records, active means well fitted inhibition curve with a large enough effect; inconclusive means small, poorly fitted or top-dose-only effect; inactive means no such curve, though single readings can be large or run the other way. A potency beside an inconclusive call is a rough fit, not a confirmed value.

Test: qHTS for Inhibitors of TGF-b; further: nearly all actives have a fitted effect of over 65% in size
Conditions: HepG2 CAGA-GFP TGF-b/SMAD3 reporter, GFP fluorescence, 18 h, TGF-beta stimulated, 500 pg/mL final; series mostly up to 46.1 µM; activity, negative = inhibition: at the top concentration
Summary of the method: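 HEPG2 CAGA-GFP, 1000 cells/well; 2 h settle, 37 C; cpd via pin tool; TGF-b 500 pg/mL final; 18 h, 37 C; GFP imaging ex488/em500-530; %Activity normalised to -TGF-b and +DMSO controls; CRC fit, curve class.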
On the % scale 0 is the no-effect control and ±100 the full control effect; potency means the concentration at half of the fitted maximal effect; tags describe the fitted curve by direction and shape.

Compound | Potency | activity, negative = inhibition
CCCOc1ccc(-c2nc(N3CCN(CC)CC3)c3ccccc3n2)cc1 | inconclusive: 35.5 µM [inhibitor, single point] | –
CC1CCN(CCCCOc2ccc(C(=O)c3ccccc3)cc2)CC1 | inconclusive: 6.31 µM [inhibitor, full curve, poor fit] | –
O=C(C1CCC(CNc2nc(=S)[nH]c3ccccc23)CC1)N1CCN(c2ccc(F)cc2)CC1 (stereo unspecified) | – | inactive: 1.89%
COc1ccc(N(CC(=O)NCc2ccccc2)S(=O)(=O)c2c(C)n[nH]c2C)cc1 | – | inactive: -0.228%
Cc1[nH]c2ccccc2c1C(=O)COC(=O)c1ccc([N+](=O)[O-])s1 | inconclusive: 22.4 µM [inhibitor, single point] | –
COc1cc(C=O)ccc1OCCCOc1ccccc1C(=O)O | inconclusive: 25.1 µM [inhibitor, single point] | –
CNc1ncnc(Sc2nc(N)nc3nc[nH]c23)c1[N+](=O)[O-] | inconclusive: 1.26 µM [inhibitor, full curve, poor fit] | –
Cc1nn2c(=O)cc(COC(=O)c3ccc(NC(=O)c4cccs4)cc3)nc2s1 | – | inactive: -18.3%
Cc1cc(C)cc(NC(=O)CN2C(=O)CCc3cc(S(=O)(=O)N4CCCCC4)ccc32)c1 | inconclusive: 35.5 µM [inhibitor, single point] | –
NC(Cc1ccccc1)c1csc(Nc2nncc3ccccc23)n1 (stereo unspecified) | active: 15.8 µM | –
CCN(C(=O)Cn1nc(Cc2ccncc2)c2ccccc2c1=O)c1cccc(C(F)(F)F)c1 | inconclusive: 35.5 µM [inhibitor, single point] | –
CCOC(=O)c1c(-c2ccccc2Cl)csc1NC(=O)c1cc(S(=O)(=O)N2CCOCC2)ccc1C | – | inactive: -5%
O=C(NCCc1ccccc1)c1ccc2c(c1)CCN2S(=O)(=O)c1ccccc1 | – | inactive: 13.1%
Cc1ccc(NC(=O)CC2=NC(=O)C(CC(=O)Nc3ccccc3F)S2)cc1 (stereo unspecified) | inconclusive: 35.5 µM [inhibitor, partial curve, poor fit] | –
O=C1[C@H](Oc2ccccc2)[C@@H](c2ccccc2)N1c1ccncc1 | inconclusive: 35.5 µM [inhibitor, single point] | –
CCOc1ccc(CNC(=O)C2CCCN(S(=O)(=O)N(CC)c3ccc(OCC)cc3)C2)cc1 (stereo unspecified) | inconclusive: 14.1 µM [inhibitor, single point] | –
Cc1ccc(Nc2sc(C(=O)c3ccccc3)c(N)c2S(=O)(=O)c2ccccc2)c(C)c1 | – | inactive: -17.6%
COc1ccc2[nH]c3c(=O)n(CCCC(=O)NC4CCCCC4C)c(=S)[nH]c3c2c1 (stereo unspecified) | inconclusive: 35.5 µM [inhibitor, single point] | –
O=C1C=C(c2cccc(Cl)c2O)C[C@@H](c2ccc3c(c2)OCO3)C1 | inconclusive: 35.5 µM [inhibitor, single point] | –
COc1ccc(OC)c(NC(=O)C23CC4CC(C2)CC(n2cnc(Br)n2)(C4)C3)c1 | – | inactive: 4.19%
Cc1c(CCC(=O)NCCCn2ccnc2)c(=O)oc2cc3occ(C(C)(C)C)c3cc12 | inconclusive: 17.8 µM [inhibitor, single point] | –
Cc1nc(-c2cnn(-c3ccccc3)c2)c2cc(C)oc2n1 | – | inactive: -2.33%

Compound | Potency | activity, negative = inhibition
O=C(CN1c2ccccc2Sc2ccccc21)N/N=C/c1ccc([N+](=O)[O-])cc1 | – | inactive: 0%
C[C@@H]1CN([C@H](C)CO)C(=O)c2cc(NC(=O)Nc3ccc(F)cc3)ccc2O[C@@H](C)CCCCO[C@H]1CN(C)S(=O)(=O)c1ccc(Cl)cc1 | inconclusive: 6.31 µM [inhibitor, full curve] | –
Cc1ccccc1CCN(C(=O)Cn1nnc2ccccc21)C(C(=O)NC(C)(C)C)c1ccsc1 (stereo unspecified) | inconclusive: 0.282 µM [inhibitor, full curve] | –
Cc1cc(C)n(-c2ccc(C(=O)N3CCC(CO)(Cc4ccccc4)CC3)cc2)n1 | inconclusive: 14.1 µM [inhibitor, single point] | –
O=C(CS(=O)(=O)Cc1ccccc1)Nc1nc2c(s1)CCCC2 | inconclusive: 3.16 µM [inhibitor, partial curve, poor fit] | –
COc1ccc2sc(N(CCN(C)C)C(=O)/C=C/c3cccs3)nc2c1 | inconclusive: 28.2 µM [inhibitor, single point] | –
CCCC[C@@H]1CN=C(N)N1CCc1cc(C(F)(F)F)cc(C(F)(F)F)c1 | inconclusive: 28.2 µM [inhibitor, single point] | –
CCc1nc2c(OCc3cc(Cl)cc(Cl)c3)cccn2c1N(C)C(=O)c1ccc(OC)cc1 | active: 3.98 µM | –
O=C(O)c1cccc(NS(=O)(=O)c2ccc(C3CCCCC3)cc2)c1 | – | inactive: -11.4%
FC(F)(F)c1ccnc(NCc2ccc(Cl)cc2)n1 | inconclusive: 35.5 µM [inhibitor, partial curve, poor fit] | –
CC1(C)C([N+](=O)[O-])C(c2ccccc2O)NC(c2ccccc2O)C1[N+](=O)[O-] (stereo unspecified) | inconclusive: 35.5 µM [inhibitor, single point] | –
CCCSCCCNC(=O)c1ccc(C)c(NC(=O)C2=C(C)OCCS2)c1 | inconclusive: 10 µM [inhibitor, partial curve] | –
CCc1ccc(NC(=O)CCCn2nc(C)c3c(C)n(-c4ccccc4)nc3c2=O)cc1 | inconclusive: 2.82 µM [inhibitor, partial curve, poor fit] | –
CC(C)CC(C(=O)NCCc1ccccc1)N1Cc2ccccc2C1=O (stereo unspecified) | inconclusive: 22.4 µM [inhibitor, single point] | –
CC(C)C[C@H](CO)Nc1nc(N(C)c2cccc(Cl)c2)c2ncn(C(C)C)c2n1 | inconclusive: 35.5 µM [inhibitor, single point] | –
CN1CCc2cccc3c2[C@@H]1Cc1ccc(O)c(O)c1-3 | inconclusive: 35.5 µM [inhibitor, single point] | –
CCN1CCC(CNCc2cn(-c3ccc(OC)cc3)nc2-c2ccccc2Cl)C1 (stereo unspecified) | inconclusive: 35.5 µM [inhibitor, single point] | –
Cc1nn(CCc2n[nH]c(=S)n2-c2ccc(F)cc2)c(C)c1[N+](=O)[O-] | – | inactive: -0.216%
CCn1ncc(C2=NOC(C(=O)Nc3cc(OC)c(Cl)cc3OC)C2)c1C (stereo unspecified) | inconclusive: 35.5 µM [inhibitor, single point] | –
Cc1nn(C(C)(C)C)c(OC(=O)c2cccc(F)c2)c1Sc1ccccc1 | inconclusive: 35.5 µM [inhibitor, single point] | –
CCN(CC(=O)Nc1ccc2c(c1)OCCO2)C(=O)c1ccc(Cl)cc1Cl | – | inactive: -5.96%
Cc1nc2c(OCc3ccc(Cl)cc3)cccn2c1N(C)C(=O)CCC1CCCC1 | inconclusive: 35.5 µM [inhibitor, single point] | –

Compound | Potency | activity, negative = inhibition
O=C(N/N=C/c1ccccn1)c1cc(-c2ccc3ccccc3c2)n[nH]1 | inconclusive: 15.8 µM [inhibitor, single point] | –
c1cncc(-c2nc(NCCCn3ccnc3)c3ccccc3n2)c1 | inconclusive: 14.1 µM [inhibitor, single point] | –
CCCOc1cccc(C(=O)NC(=S)Nc2cccc(NC(=O)c3ccccc3Cl)c2)c1 | inconclusive: 5.62 µM [inhibitor, single point] | –
CC1(C(=O)Nc2cnc3ccccc3c2)CCN1Cc1ccc(-c2ccccc2)o1 (stereo unspecified) | inconclusive: 15.8 µM [inhibitor, single point] | –
CCc1ccc(S(=O)(=O)N2c3ccc(C)cc3C3CN(C)CCC32)cc1 (stereo unspecified) | – | inactive: -0.672%
O=C(CC1SC(=O)N(c2ccccc2)C1=O)Nc1ccccc1 (stereo unspecified) | – | inactive: -9.79%
CC(=C/c1ccccc1)/C=N/NC(=O)c1cccs1 | – | inactive: -16.9%
O=S(=O)(Nc1ccc(O)c2ccccc12)c1ccc(F)cc1 | inconclusive: 22.4 µM [inhibitor, single point] | –
Cc1ccccc1CNC(=O)c1ccc(CS(=O)Cc2ccc(Cl)cc2)o1 (stereo unspecified) | inconclusive: 7.08 µM [inhibitor, partial curve, poor fit] | –
CCOc1ccc(N2CC(c3nc4ccccc4n3Cc3cccc(C)c3)CC2=O)cc1 (stereo unspecified) | inconclusive: 35.5 µM [inhibitor, single point] | –
COc1ccc(CNc2ccc([N+](=O)[O-])cc2C)cc1 | – | inactive: -11.6%
COc1ccc(CN2C(=O)C(C)Nc3ncnc(N4CCOCC4)c32)cc1 (stereo unspecified) | inconclusive: 11.2 µM [inhibitor, partial curve, poor fit] | –
COC(=O)COc1cccc(NC(=O)c2ccc(C)cc2)c1 | – | inactive: -18.9%
O=C(c1ccc(CS(=O)Cc2ccc(Cl)cc2)o1)N1CCN(c2ccccc2)CC1 (stereo unspecified) | – | inactive: -20.2%
CS(=O)(=O)c1nc(-c2ccccc2)c(-c2ccccc2)[nH]1 | – | inactive: -5.8%
CCCCCCCCCCCCN1[C@@H](CC(C)=O)c2cc(F)ccc2S1(=O)=O | – | inactive: -23.4%
COc1ccc(C2OC(CCc3ccccc3)CC3=C2C(=O)OC(C)(C)O3)cc1 (stereo unspecified) | inconclusive: 0.224 µM [inhibitor, full curve, poor fit] | –
N#C/C(=C\c1cn(CCOc2ccccc2F)c2ccccc12)C(=O)NCc1cccs1 | inconclusive: 0.891 µM [inhibitor, full curve] | –
COc1ccccc1CN1CCC(CNS(=O)(=O)c2cc(-c3cc(C)no3)ccc2C)CC1 | inconclusive: 14.1 µM [inhibitor, partial curve, poor fit] | –
Cc1ccc(CNC(=O)[C@H](C)[C@H]2C[C@]2(C)[C@H](NC(=O)OCc2ccccc2)c2ccccc2)o1 | – | inactive: -16%
CN1CC[C@H](CN2c3ccccc3Sc3ccccc32)C1 | inconclusive: 35.5 µM [inhibitor, single point] | –
CCNC(=O)c1ccc(OCC(=O)Nc2ccc(F)cc2)c(OC)c1 | inconclusive: 0.112 µM [inhibitor, full curve, poor fit] | –
